Test results as given in PubChem BioAssay AID1347165 (National Center for Advancing Translational Sciences (NCATS), 2019).
“And” between values parts separate entries of the source, which are not always exact repeats. Equal entries are not always repeated. In all, about 220,000 compounds went through this assay and about 5,700 (2.6%) were called active. The inconclusive results got no clear call from the source; some entries with a clear call stand among them for comparison. Calls come from the whole dose curve; as a rule, active = well fitted inhibition curve with a large enough effect; inconclusive = small, poorly fitted or top-dose-only effect; inactive = no such curve, though single readings can be large or run the other way. Where the call is inconclusive, the potency comes from a doubtful curve fit.
Note: nearly all actives have a fitted effect of over 70% in size.
Potency is the fitted concentration of half-maximal effect; tags give direction and shape of the fitted curve.
Throughout, for activity change, negative = inhibition: 0% is about no effect.

What follows are compounds tested against Lysine-specific demethylase 5B (Homo sapiens) (UniProt Q9UGL1) (assay: Primary screen for KDM5B Histone Demethylases FDH-coupled qHTS). Settings: FDH-coupled NADH fluorescence (FDH is formaldehyde dehydrogenase); activity change, negative = inhibition: at 57.7 µM (top of the series) unless noted.
UniProt Q9UGL1, sequence (Q9UGL1 whole entry, looked up): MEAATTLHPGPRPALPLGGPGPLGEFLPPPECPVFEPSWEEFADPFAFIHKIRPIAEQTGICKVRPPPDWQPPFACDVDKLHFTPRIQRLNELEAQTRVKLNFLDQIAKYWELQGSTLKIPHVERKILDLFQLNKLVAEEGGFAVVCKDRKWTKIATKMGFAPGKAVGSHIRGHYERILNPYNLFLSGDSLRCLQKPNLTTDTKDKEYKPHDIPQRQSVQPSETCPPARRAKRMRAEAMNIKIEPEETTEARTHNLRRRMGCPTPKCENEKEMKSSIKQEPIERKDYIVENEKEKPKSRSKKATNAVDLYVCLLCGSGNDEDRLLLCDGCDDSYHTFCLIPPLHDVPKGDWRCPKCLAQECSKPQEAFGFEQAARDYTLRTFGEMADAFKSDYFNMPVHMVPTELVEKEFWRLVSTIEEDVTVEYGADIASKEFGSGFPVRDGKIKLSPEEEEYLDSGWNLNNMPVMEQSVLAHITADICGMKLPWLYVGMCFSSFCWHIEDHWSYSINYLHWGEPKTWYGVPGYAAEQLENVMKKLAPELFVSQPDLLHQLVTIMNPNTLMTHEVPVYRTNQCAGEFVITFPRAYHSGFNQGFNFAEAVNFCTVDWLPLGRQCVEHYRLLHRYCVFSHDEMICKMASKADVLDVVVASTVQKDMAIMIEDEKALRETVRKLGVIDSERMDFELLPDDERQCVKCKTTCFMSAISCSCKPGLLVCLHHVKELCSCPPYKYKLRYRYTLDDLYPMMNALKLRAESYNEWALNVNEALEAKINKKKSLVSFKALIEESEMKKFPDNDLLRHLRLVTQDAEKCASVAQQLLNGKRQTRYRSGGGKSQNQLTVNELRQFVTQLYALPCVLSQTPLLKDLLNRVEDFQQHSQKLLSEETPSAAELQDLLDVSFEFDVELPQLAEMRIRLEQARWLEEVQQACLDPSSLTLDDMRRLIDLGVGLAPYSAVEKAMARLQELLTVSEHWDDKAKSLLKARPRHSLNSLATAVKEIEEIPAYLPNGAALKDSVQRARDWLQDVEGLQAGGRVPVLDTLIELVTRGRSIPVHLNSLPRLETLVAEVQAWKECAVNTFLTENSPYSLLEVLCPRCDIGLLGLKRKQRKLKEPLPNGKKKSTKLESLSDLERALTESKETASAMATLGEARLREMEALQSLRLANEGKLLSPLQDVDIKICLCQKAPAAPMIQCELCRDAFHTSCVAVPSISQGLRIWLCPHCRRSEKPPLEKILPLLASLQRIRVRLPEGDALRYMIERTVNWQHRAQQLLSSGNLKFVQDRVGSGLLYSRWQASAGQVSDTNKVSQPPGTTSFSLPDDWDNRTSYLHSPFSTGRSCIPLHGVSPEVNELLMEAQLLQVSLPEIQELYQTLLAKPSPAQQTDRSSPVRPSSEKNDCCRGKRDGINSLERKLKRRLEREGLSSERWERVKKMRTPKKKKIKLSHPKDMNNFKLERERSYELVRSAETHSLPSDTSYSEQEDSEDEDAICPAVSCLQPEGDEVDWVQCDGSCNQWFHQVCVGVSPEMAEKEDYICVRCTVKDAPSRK
In short: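 Here, H3K4me3 peptide (12.5 µM in substrate mix) is demethylated by KDM5BΔAP, 200 nM final, after 10 min compound exposure. Formaldehyde product is coupled through FDH (0.25 U/mL in mix) to NADH fluorescence; 30-min ΔRFU feeds dose-response curves.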
For `CCc1nc(CN2CCCC(CO)(CC3CC3)C2)cs1` (configuration not stated), the Potency was inconclusive: 3.55 µM [inhibitor, partial curve].
For `Cc1ccccc1Cn1c(=O)n(Cc2ccc3c(c2)OCO3)c(=O)c2oc3ccccc3c21`, the “activity change, negative = inhibition” value was inactive: -17.7%.
For `O=C(CCc1nc2cccnc2n1Cc1cccs1)Nc1cccc(C(F)(F)F)c1`, the Potency was inconclusive: 31.6 µM [inhibitor, partial curve, poor fit].
`O=C(c1cccs1)N(Cc1cccnc1)c1nc2c(Cl)cccc2s1` was tested, and the Potency was inconclusive: 39.8 µM [inhibitor, single point].
`COc1ccc(-c2cc(-c3cccc(OC)c3OC)cn3cncc23)cc1` was tested, and the Potency was inconclusive: 28.2 µM [inhibitor, partial curve, poor fit].
`CCOc1ccc(-c2nc(C#N)c(NCc3ccco3)o2)cc1` was tested, and the Potency was inconclusive: 1.78 µM [inhibitor, partial curve, poor fit].
`O=c1n(-c2ccncc2)nc2n1CCN([S+](=O)([O-])c1cccs1)C2` was tested, and the Potency was inconclusive: 5.01 µM [inhibitor, partial curve, poor fit].
In the case of `Cc1ccc(C(=O)Nc2ccc(-c3nc4ccc(C)cc4s3)cc2)c(C)c1`, the “activity change, negative = inhibition” value is reported as inactive: 248%.
For `NC(=O)C1CCN(C(=O)COc2ccc(Nc3ccccc3)cc2)CC1`, the Potency was inconclusive: 10 µM [inhibitor, partial curve, poor fit].
With `CCN1C(=O)N/C(=C/c2cn(CC(=O)Nc3ccc(C)cc3)c3ccccc23)C1=O` the “activity change, negative = inhibition” value was inactive: 0.249%.
For `COCCC1(CO)CCCN(CC(N)=O)C1` (configuration not stated), the “activity change, negative = inhibition” value was inactive: -15.6%.
With `CCOc1ccccc1NC(=O)CSc1nc2ccccc2nc1N1CCOCC1` the Potency was inconclusive: 39.8 µM [inhibitor, partial curve, poor fit].
For `COC(=O)c1cc(NS(=O)(=O)c2ccc3c(c2)OCCO3)ccc1Cl`, the activity change, negative = inhibition was inconclusive: -31.7% [inhibitor].
For `Cc1nncn1C1CCN(S(=O)(=O)c2ccccc2Cl)CC1`, the “activity change, negative = inhibition” value was inactive: 3.68%.
In the case of `CN(C)C1(CNC(=O)c2ccccc2-c2ncc(-c3ccccc3)o2)CCCCC1`, the Potency is reported as inconclusive: 15.8 µM [inhibitor, partial curve, poor fit].
In the case of `CC(C)(C)C1CCC(C(=O)OCC(=O)c2ccc(Cl)c(Cl)c2)CC1` (configuration not stated), the “activity change, negative = inhibition” value is reported as inactive: -4.18%.
`O=C(Nc1cccc(F)c1)c1cc2n(n1)CC(c1ccc(Br)cc1)OC2` (configuration not stated) was tested, and the Potency was active: 25.1 µM.
`FC(F)(F)c1ccc(Cl)c(N/N=C/c2cccc(Cl)c2Cl)c1` was tested, and the “activity change, negative = inhibition” value was inactive: 8.59%.
`O=C(O)Cc1cccc2cccnc12` was tested, and the “activity change, negative = inhibition” value was inactive: 19.3%.
For `CCN(CC1CCOCC1)C(=O)Cc1cnc2c(C)cccn12`, the Potency was inconclusive: 15.8 µM [inhibitor, partial curve, poor fit].
With `CCOc1ccc(/C=C/c2nc(C#N)c(N3CCN(CC)CC3)o2)cc1` the Potency was inconclusive: 15.8 µM [inhibitor, partial curve, poor fit] and inconclusive: 1.78 µM [inhibitor, partial curve, poor fit].
For `CCOc1ccc2c(n1)CCN(C(=O)C1(c3ccccc3)CC1)C2`, the Potency was inconclusive: 22.4 µM [inhibitor, single point].
`CC(=O)c1cccc(OCc2cc(C(=O)N(C)Cc3ccc(C)o3)no2)c1` was tested, and the Potency was inconclusive: 14.1 µM [inhibitor, partial curve, poor fit].
With `CCN(CC)S(=O)(=O)c1ccc(NC(=O)Cn2ncc3c([nH]c4ccccc43)c2=O)cc1` the Potency was inconclusive: 39.8 µM [inhibitor, single point].
`CN(Cc1ccco1)C(=O)c1cc(-c2cccs2)nc2ccccc12` was tested, and the Potency was inconclusive: 22.4 µM [inhibitor, partial curve, poor fit].
For `O=C(c1c[nH]c(=O)cn1)N1C[C@H](CO)C[C@H](CN2CCOCC2)C1`, the Potency was inconclusive: 17.8 µM [inhibitor, partial curve, poor fit].
In the case of `COc1ccc(N2CCN(C(=O)c3cc4c(=O)n(Cc5cccnc5)ccc4nc3C)CC2)cc1`, the Potency is reported as inconclusive: 22.4 µM [inhibitor, single point].
In the case of `O=c1c2c(n(Cc3cccnc3)n1CCc1ccccc1)CN(Cc1cccc(O)c1)CC2`, the Potency is reported as inconclusive: 35.5 µM [inhibitor, partial curve, poor fit].
In the case of `CN1CCN(c2nc3c(s2)CN(C(=O)CCC2CCCC2)CC3)CC1`, the Potency is reported as inconclusive: 35.5 µM [inhibitor, partial curve, poor fit].
With `O=[S+]1([O-])NC2(CCN(Cc3ccncc3)CC2)COc2ccccc21` the Potency was inconclusive: 56.2 µM [inhibitor, partial curve, poor fit].
With `CCOc1cc(C(c2c(C)[nH]n(-c3ccccc3)c2=O)c2c(C)[nH]n(-c3ccccc3)c2=O)ccc1O` the Potency was inconclusive: 28.2 µM [inhibitor, partial curve, poor fit].
In the case of `O=C(OC(c1ccccc1)c1ccccn1)c1cnc2ccccc2n1` (configuration not stated), the “activity change, negative = inhibition” value is reported as inactive: 0.622%.
In the case of `N#Cc1ccc(OCC(=O)c2ccc(C3CCCCC3)cc2)cc1`, the “activity change, negative = inhibition” value is reported as inactive: 22.8%.
With `CC(C)NS(=O)(=O)c1cccc(C(=O)Nc2ccc(N3CCCCC3)c3ccncc23)c1` the Potency was inconclusive: 22.4 µM [inhibitor, partial curve, poor fit].
`Cc1ccc(S(=O)(=O)NCC(=O)OCc2cc(=O)oc3c(C)c(C)ccc23)cc1` was tested, and the Potency was inconclusive: 35.5 µM [inhibitor, single point].
In the case of `O=C1COCC2(CN1Cc1c(F)cccc1Cl)CN(c1ccc(C(F)(F)F)cn1)C2`, the Potency is reported as inconclusive: 35.5 µM [inhibitor, partial curve, poor fit].
For `CCCCN(CC)CC(=O)Nc1cccc2ncccc12`, the “activity change, negative = inhibition” value was inactive: -14.8%.
`CCOc1ccc(Nc2oc(/C=C/c3ccccc3)nc2C#N)cc1` was tested, and the Potency was inconclusive: 2.82 µM [inhibitor, full curve, poor fit].
For `O=c1c(-c2cccc(C(F)(F)F)c2)ccc2n1C[C@H]1C[C@@H]2CN(S(=O)(=O)c2ccccc2)C1`, the Potency was inconclusive: 31.6 µM [inhibitor, single point].
With `O=C(c1cnccn1)N1CCCC2(C1)Nc1cccnc1NC2=NCc1ccccc1` (configuration not stated) the Potency was inconclusive: 28.2 µM [inhibitor, partial curve, poor fit].
For `NC(=O)Cc1c[nH]c2ncc(-c3cccc(C(F)(F)F)c3)cc12`, the Potency was inconclusive: 25.1 µM [inhibitor, partial curve, poor fit].
With `CC1CCC(NC(=O)CCC2CCCO2)CC1` (configuration not stated) the “activity change, negative = inhibition” value was inactive: -13.7%.
With `N#Cc1nc(-c2ccccc2Cl)oc1NC1CCCCC1` the Potency was inconclusive: 14.1 µM [inhibitor, partial curve, poor fit].
For `O=C(c1cccc(Cl)c1)N1CCC2(CC1)CCN(Cc1cccs1)c1ccccc1O2`, the Potency was inconclusive: 11.2 µM [inhibitor, partial curve].
In the case of `COc1ccc(OC)c(NC(=O)c2c(NCc3cccs3)sc3c2CCCCC3)c1`, the Potency is reported as inconclusive: 17.8 µM [inhibitor, partial curve, poor fit].
In the case of `CCN(CC)c1ccc(NC(=O)c2c(C)nn(-c3ccc(F)cc3)c2-n2cccc2)c(C)c1`, the Potency is reported as inconclusive: 25.1 µM [inhibitor, partial curve, poor fit].
`CC1CCN([C@@H]2[C@H](O)[C@H](CO)O[C@@H]2CNC(=O)N2CCOCC2)CC1` was tested, and the Potency was inconclusive: 39.8 µM [inhibitor, partial curve, poor fit].
In the case of `CN(C)c1ccc(C(=O)N2CCC(n3cc(-c4nc(-c5ccccc5)no4)nn3)C2)cc1` (configuration not stated), the Potency is reported as inconclusive: 22.4 µM [inhibitor, partial curve, poor fit].
For `CC(C)c1ccc(S(=O)(=O)NCCc2ncc3ccccn23)cc1`, the Potency was inconclusive: 39.8 µM [inhibitor, single point].
`CC(C)c1ccc(Nc2nnc(SCC(=O)NC(C)(C)C)s2)cc1` was tested, and the “activity change, negative = inhibition” value was inactive: 4.18%.
For `COc1ccc(CN2CCOc3nc(-c4ccc(F)cc4F)ncc3C2=O)cc1`, the “activity change, negative = inhibition” value was inactive: -3.95% [at 86.2 µM].
`CCCOc1ccc(NC(=O)C(C)Oc2cc(C)cc(C)c2)c2cccnc12` (configuration not stated) was tested, and the Potency was inconclusive: 28.2 µM [inhibitor, single point].
With `Fc1ccccc1Nc1c2c(nc3ccccc13)CCC2` the Potency was inconclusive: 31.6 µM [inhibitor, single point].
`Cc1nn(C)c(C)c1CCN(C)C(=O)CCC[C@H]1NC[C@@H]2C[C@H]1CN(Cc1ccccc1)C2` was tested, and the Potency was inconclusive: 14.1 µM [inhibitor, partial curve].
With `Clc1ccccc1Sc1ccc(-c2ccccn2)s1` the Potency was inconclusive: 28.2 µM [inhibitor, partial curve, poor fit].
`COc1cccc(S(=O)(=O)N2CCC3(CC2)C(=O)NN=C3c2ccccn2)c1` was tested, and the Potency was inconclusive: 25.1 µM [inhibitor, single point].
With `CCN(CC)S(=O)(=O)c1ccc(NC(=O)Cn2nnc(-c3ccc(F)cc3)n2)cc1` the “activity change, negative = inhibition” value was inactive: 3.39%.
With `CC1(C)CC(CCN2CCCCC2)(c2cccc(C(F)(F)F)c2)CCO1` (configuration not stated) the Potency was inconclusive: 14.1 µM [inhibitor, partial curve, poor fit].
With `COc1ccc(-c2cc(C)no2)cc1S(=O)(=O)N1CCN(c2cccc(C)c2)C(C)C1` (configuration not stated) the Potency was inconclusive: 0.891 µM [inhibitor, partial curve, poor fit].
`COc1ccc(NC(=O)CSC2=Nc3ccccc3C3=NC(C(C)C)C(=O)N23)cc1OC` (configuration not stated) was tested, and the “activity change, negative = inhibition” value was inactive: 8.48%.
`O=C(Nc1ccccc1)c1cnc(N2CCCCC2)c2ccccc12` was tested, and the Potency was inconclusive: 39.8 µM [inhibitor, single point].
`CCN(CC)c1cc(C)c2cc(NC(=O)c3ccc(OC)c(OC)c3)ccc2n1` was tested, and the Potency was inconclusive: 35.5 µM [inhibitor, partial curve, poor fit].
